This is one part of the list.
molecular target: T1, LXRa (Homo sapiens) (UniProt Q13133); settings: 270 nM, no RXRa, PBS pH 7.4, 2% milk, 0.02% Triton X-100, 1 mM DTT, BSA, 0.4 mg/ml salmon testes DNA; double strand, one strand shown
T1 sequence: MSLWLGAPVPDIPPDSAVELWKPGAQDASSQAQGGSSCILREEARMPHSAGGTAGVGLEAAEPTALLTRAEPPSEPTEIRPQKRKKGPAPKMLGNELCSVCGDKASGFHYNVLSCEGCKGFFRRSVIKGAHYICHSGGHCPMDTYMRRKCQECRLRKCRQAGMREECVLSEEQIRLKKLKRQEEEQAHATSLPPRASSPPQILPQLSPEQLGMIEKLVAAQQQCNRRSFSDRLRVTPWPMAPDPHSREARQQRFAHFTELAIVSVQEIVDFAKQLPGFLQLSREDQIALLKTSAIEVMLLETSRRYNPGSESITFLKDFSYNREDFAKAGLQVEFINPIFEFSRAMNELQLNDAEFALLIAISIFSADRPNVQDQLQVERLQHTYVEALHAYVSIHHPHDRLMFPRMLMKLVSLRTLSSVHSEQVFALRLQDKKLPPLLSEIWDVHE

Sequence | binding signal (PBM z-score against 500 random probes)
GCGGTACTCAGTATGTGAAGAATCATGTTGAGGCAGGCGATTGACAGCGTAGAATGAAGG | -0.1
GCTGTTCTTACTGAGGCGTTTGCTGCCTAGCTCCCTGCGATTGACAGCGTAGAATGAAGG | -0.24
GCGCCCAGTAGTTTGAGACCAGCCTGGACAACATGGGCGATTGACAGCGTAGAATGAAGG | -0.48
GCAGGTAATGTATTCACAGGTTCTGGGACGTCATTGGCGATTGACAGCGTAGAATGAAGG | -0.15
GCTGTGCCTTCTGCACAAGGTAGGTCTACATCCACTGCGATTGACAGCGTAGAATGAAGG | -0.39
GCATTGAGCAGGTGTTGATTACAAATGAGATGTTTCGCGATTGACAGCGTAGAATGAAGG | 0.29
GCTCCCTGCCCAGTTCTGTGCAGGGTGTGCGTGTCTGCGATTGACAGCGTAGAATGAAGG | -0.94
GCCACATCTGTAATCCCAGCACTTTGGGAGGCCAAGGCGATTGACAGCGTAGAATGAAGG | 0.5
GCGAAGAAGAAGAAGAAGGAGGAGGAGGAGGAGGAGGCGATTGACAGCGTAGAATGAAGG | 0.21
GCCAAGATGAATCAGAAGCATGCCATCCGAATTCCAGCGATTGACAGCGTAGAATGAAGG | -0.2
GCTTACTCTGTTGCACTTTGGAAGAAACAAATGTAAGCGATTGACAGCGTAGAATGAAGG | -0.03
GCTGGGCACATGAGGGATGGGAGTTGATCTCTGTGGGCGATTGACAGCGTAGAATGAAGG | -0.29
GCGCCTCTGGAATGTAAACTCCAGCCTGGCATGTATGCGATTGACAGCGTAGAATGAAGG | -0.43
GCGTGCGAGGGAAGGAGCATGCTTCATTGATCCCATGCGATTGACAGCGTAGAATGAAGG | -0.82
GCAACAGGCAGCTGGCTGTGCACGGCAACCATGGGCGCGATTGACAGCGTAGAATGAAGG | -1.21
GCTGGCAATGGCTGGACCACTCCAAGAACTGTGTGGGCGATTGACAGCGTAGAATGAAGG | -0.77
GCACTTAGAGCCCAGGAGCTTGAGGTCGCAGCTACTGCGATTGACAGCGTAGAATGAAGG | -0.52
GCGTTGATGAATCATGACCCACACTCAACCACCAGCGCGATTGACAGCGTAGAATGAAGG | 0.38
GCGAGGACAGAGTAGATCAACCTTTCCTACCTCTAAGCGATTGACAGCGTAGAATGAAGG | -0.34
GCAAGCCAGGACTGGACTTCGGACCACCAGTTCCAAGCGATTGACAGCGTAGAATGAAGG | -0.65
GCGAGCCACCACGCCTGGCCTCTCCGATCTCCAACTGCGATTGACAGCGTAGAATGAAGG | 0.03
GCAGCGCACCAGCATGGCACATGTATACATATGTAAGCGATTGACAGCGTAGAATGAAGG | -0.57
GCGCTACTTGGGAGGCTGAGATGGTAGAATCACTTGGCGATTGACAGCGTAGAATGAAGG | -0.61
GCGCCTGTGACTTAGAATGCCCTACCTCCTGGGAATGCGATTGACAGCGTAGAATGAAGG | 0.1
GCTCTCTGGTACCAGTGAAGAAGACGTCCAGGTGGCGCGATTGACAGCGTAGAATGAAGG | -0.69

molecular target: T2, LXRb (Homo sapiens) (UniProt P55055); settings: 270 nM, no RXRa, PBS pH 7.4, 2% milk, 0.02% Triton X-100, 1 mM DTT, BSA, 0.4 mg/ml salmon testes DNA; double strand, one strand shown
T2 sequence: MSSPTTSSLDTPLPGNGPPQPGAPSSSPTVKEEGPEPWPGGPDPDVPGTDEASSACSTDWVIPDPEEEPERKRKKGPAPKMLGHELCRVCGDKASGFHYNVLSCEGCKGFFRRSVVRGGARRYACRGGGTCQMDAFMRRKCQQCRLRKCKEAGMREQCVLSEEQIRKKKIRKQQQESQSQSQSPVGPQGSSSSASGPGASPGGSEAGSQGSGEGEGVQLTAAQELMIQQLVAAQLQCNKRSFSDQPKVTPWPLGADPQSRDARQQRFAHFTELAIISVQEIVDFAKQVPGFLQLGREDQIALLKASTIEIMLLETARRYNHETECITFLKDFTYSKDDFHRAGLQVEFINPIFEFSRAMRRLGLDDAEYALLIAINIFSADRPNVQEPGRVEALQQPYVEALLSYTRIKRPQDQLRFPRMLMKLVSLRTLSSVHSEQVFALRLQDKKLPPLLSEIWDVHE

Sequence | binding signal (PBM z-score against 500 random probes)
GCGTGGCTCAAAGTCATCAAGAGCATTCACATTGGAGCGATTGACAGCGTAGAATGAAGG | -0.51
GCATGAGCTGAGATCACAACACTGCACTCCATCCTGGCGATTGACAGCGTAGAATGAAGG | -0.23
GCCCGAGTAGGTTACGAGGAGGCATTCAGTGCGAATGCGATTGACAGCGTAGAATGAAGG | -0.7
GCCTATGTAGGTTGAGGGGGTCATTCAGTTTGAAAGGCGATTGACAGCGTAGAATGAAGG | 10.8
GCATACACTTCTGGAGGCCAGAGGTCTGAAATCAAGGCGATTGACAGCGTAGAATGAAGG | -0.45
GCAAGTTGCAGGTTGACCTACGGTGGTGGTGGTCTAGCGATTGACAGCGTAGAATGAAGG | 0.07
GCCCGAGTAGGTTAGGAGGGGGCATTCAGTGCGAATGCGATTGACAGCGTAGAATGAAGG | 10.5
GCTAGCTGAGACTACATGCCACCATGCCTGGCTAATGCGATTGACAGCGTAGAATGAAGG | -0.18
GCTGGAATCCTAGTGCTTTGGGAGGCTGAGGCTGGAGCGATTGACAGCGTAGAATGAAGG | -0.73
GCCACCGTGTTAGCCAGGATGGTCTCGATCTCCTGAGCGATTGACAGCGTAGAATGAAGG | -0.65
GCCTATGTGGGTTAAGGGGGTCATTCAGTTTGAAAGGCGATTGACAGCGTAGAATGAAGG | 10.4
GCTCGTGTAGGTTACGGGGGCATTCAGGGATGAAGAGCGATTGACAGCGTAGAATGAAGG | 12.7
GCTCGAGTAGGTTAGGGGGGCATTCAGGGATGAAGAGCGATTGACAGCGTAGAATGAAGG | 14.8
GCCCCAGATGACGGGTTGATATGGGCAGCAAACCGCGCGATTGACAGCGTAGAATGAAGG | -0.86

molecular target: PPARg (Homo sapiens) (UniProt P37231); settings: 180 nM, no RXRa, PBS pH 7.4, 2% milk, 0.02% Triton X-100, 1 mM DTT, BSA, 0.4 mg/ml salmon testes DNA; double strand, one strand shown
Sequence of UniProt P37231 (P37231 29-505): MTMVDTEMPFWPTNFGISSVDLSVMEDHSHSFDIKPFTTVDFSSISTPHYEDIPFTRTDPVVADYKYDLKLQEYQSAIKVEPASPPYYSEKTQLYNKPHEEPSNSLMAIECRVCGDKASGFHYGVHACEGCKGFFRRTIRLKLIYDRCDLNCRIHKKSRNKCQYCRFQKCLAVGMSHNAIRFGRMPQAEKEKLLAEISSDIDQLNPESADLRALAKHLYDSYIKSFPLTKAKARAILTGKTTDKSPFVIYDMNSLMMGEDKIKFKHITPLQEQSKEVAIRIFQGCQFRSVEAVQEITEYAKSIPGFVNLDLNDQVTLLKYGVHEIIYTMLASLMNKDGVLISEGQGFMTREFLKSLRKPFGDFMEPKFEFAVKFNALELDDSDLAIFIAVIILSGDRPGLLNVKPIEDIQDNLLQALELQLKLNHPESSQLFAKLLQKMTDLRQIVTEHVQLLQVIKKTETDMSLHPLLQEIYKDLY

Sequence | binding signal (PBM z-score against 500 random probes)
GCCAAGATGAATCAGAAGCATGCCATCCGAATTCCAGCGATTGACAGCGTAGAATGAAGG | -0.47
GCAACAGGCAGCTGGCTGTGCACGGCAACCATGGGCGCGATTGACAGCGTAGAATGAAGG | -1.44
GCACTTAGAGCCCAGGAGCTTGAGGTCGCAGCTACTGCGATTGACAGCGTAGAATGAAGG | -0.7
GCGAGCCACCACGCCTGGCCTCTCCGATCTCCAACTGCGATTGACAGCGTAGAATGAAGG | -0.22

— PMC6555819
